Out of some 420,000 compounds screened, about 64,000 (15%) were called active. The shares of active, inactive and inconclusive entries below differ from those in the screen. The call rests on the fitted dose curve; in most records, active means well fitted inhibition curve with a large enough effect; inconclusive means small, poorly fitted or top-dose-only effect; inactive means flat fitted curve, though single readings scatter. No potency is given beside an inconclusive call; the fits are too rough.
Test: qHTS for Inhibitors of human tyrosyl-DNA phosphodiesterase 1 (TDP1): qHTS in cells in absence of CPT; further: nearly all actives have a fitted effect of over 55% in size
Conditions: DT40 Tdp1-/- hTDP1 cells, no CPT, ATP luminescence, 48 h; series mostly up to 46.2 µM
How it was run: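 Readout: luminescence from CellTiter-Glo after 30 min in the dark at RT. Cells: DT40 Tdp1-/- with stable hTDP1, 400/well. Exposure: compounds alone, ≥48 hr, 37 °C.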
Potency means the concentration at half of the fitted maximal effect; tags describe the fitted curve by direction and shape.

Row | Compound | Potency
1 | Cc1ccc(S(=O)(=O)N2CCCN(S(=O)(=O)c3ccccc3Br)CC2)cc1 | inconclusive [inhibitor, single point]
2 | CCOC(=O)C1CCN(c2ncnc3c2c(-c2ccccc2)cn3-c2ccc(C)cc2)CC1 | active: 18.4 µM
3 | CN(C)c1nc(N/N=C\c2ccc(Cl)c([N+](=O)[O-])c2)nc(Nc2ccc(F)cc2)n1 | active: 5.17 µM
4 | CCc1ccc(S(=O)(=O)c2nnn3c2nc(NCCc2ccccc2)c2sccc23)cc1 | inconclusive [inhibitor, single point]
5 | Cc1nc2c(cnn2-c2ccccc2Cl)c(=O)n1-c1ccc(C(C)C)cc1 | active: 20.6 µM
6 | CCOC(=O)c1ccc(NC(=O)CSc2nccn2C)cc1 | inconclusive [inhibitor, partial curve]
7 | O=C(Nc1ccc(Cl)c(Cl)c1)c1ccc2c(c1)OCO2 | inconclusive [inhibitor, single point]
8 | Cc1ccc(C(C(=O)NC2CCCCC2)N(C(=O)c2csnn2)C2CC2)o1 (centres undefined) | inconclusive [inhibitor, partial curve, poor fit]
9 | COc1cccc(/C=N/n2c(-c3n[nH]c4c3CCC4)n[nH]c2=S)c1O | inconclusive [inhibitor, full curve, poor fit]
10 | CCC(=O)Nc1cccc2c1C(=O)N(C)C2=O | inactive
11 | Fc1ccc(NC(=S)Nc2cc(Cl)ccc2Cl)cc1 | inconclusive [inhibitor, single point]
12 | COc1ccc(S(=O)(=O)N2CCOCC2)cc1NC(=O)C1CC1 | inactive
13 | O=C(NC(=S)N1CCN(c2nc(-c3ccccc3)cs2)CC1)c1cccnc1 | inconclusive [inhibitor, single point]
14 | CC/C(=N\N=C1\SC(C)C(=O)N1Cc1ccco1)c1ccccc1 (centres undefined) | inconclusive [inhibitor, single point]
15 | CCN(CC)S(=O)(=O)c1cccc(NC(=O)CCNC(=O)NC23CC4CC(CC(C4)C2)C3)c1 | inconclusive [inhibitor, single point]
16 | CN(c1cccc(NC(=O)c2ccccc2N(C)S(=O)(=O)c2ccccc2)c1)S(C)(=O)=O | inconclusive [inhibitor, single point]
17 | O=C(Cc1ccccc1F)Nc1cc(S(=O)(=O)N2CCOCC2)ccc1N1CCCC1 | inactive
18 | O=C(CCCc1nc(-c2ccccc2Cl)no1)NCc1cccnc1 | inconclusive [inhibitor, single point]
19 | O=C(Cc1ccc(S(=O)(=O)N2CCOCC2)s1)Nc1ccccc1N1CCCC1 | active: 14.6 µM
